These results are taken from the supplement of paper PMC10681739.

Over roughly 4,100 sequences, “arbitrary fluorescence units” has its median near 780; the highest 2% begin near 22,000. The list shows a part of the results.

For this test, the target named is T1, ETS1 (UniProt P14921).
T1 sequence: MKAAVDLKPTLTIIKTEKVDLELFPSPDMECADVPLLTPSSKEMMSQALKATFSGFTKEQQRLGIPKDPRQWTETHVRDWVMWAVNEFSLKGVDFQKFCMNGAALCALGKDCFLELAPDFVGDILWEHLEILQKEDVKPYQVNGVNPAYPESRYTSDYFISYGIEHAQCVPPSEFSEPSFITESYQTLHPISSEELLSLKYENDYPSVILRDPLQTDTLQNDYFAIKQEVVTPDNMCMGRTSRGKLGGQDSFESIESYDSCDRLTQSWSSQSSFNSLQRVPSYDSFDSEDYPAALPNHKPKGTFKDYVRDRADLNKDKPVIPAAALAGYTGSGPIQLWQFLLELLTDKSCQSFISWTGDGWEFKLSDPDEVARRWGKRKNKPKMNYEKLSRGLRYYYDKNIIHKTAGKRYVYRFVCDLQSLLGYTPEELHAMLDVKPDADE
Description: ETS1 binding intensity (PBM fluorescence), ETS1 alone (arbitrary fluorescence units); higher = stronger binding. As to conditions: ETS1 concentration 1 nM; RUNX1 concentration 0 nM. Summed up:
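Recombinant full-length human ETS1 was applied at 1 nM, without RUNX1, to double-stranded Agilent 4 × 180k arrays of 36-bp genomic probes carrying a mutated RUNX1 partner site, following standard PBM protocols. Detection used an anti-ETS1 antibody (Cell Signaling Technology 14069) and an Alexa488-conjugated secondary antibody, with scanning on a GenePix 4400A. Each sequence was printed as four replicate spots. Binding level is the spot fluorescence intensity, summarised across replicates and not normalised.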
As to GTACTGCTTGGGGGAGAGCCCCACAGGAAATCCAGA, the ETS1 binding intensity came to 731.

The sequence ATGGTGCCCGCTGCAGCCGAGGACCGGATAGCCCGC returned an ETS1 binding intensity of 340.

CTCTTGGGGTCAGGTCACGCCGCCGGAAGCCGCCCC: the ETS1 binding intensity turned out to be 650.

For the sequence AGCTTCCTGTTTGGCCTTGCTGATGTCACCCCATTA, the ETS1 binding intensity was 27600.

In turn, GCTCCCTCGGTGGGGATGCTGTTTCCGTCCTGGATG had an ETS1 binding intensity of 701.

The sequence TTAACTCCACGGAAGAATAAACTACCTCCGCTCACC yielded an ETS1 binding intensity of 465.

Regarding GTGATGGCACCCTCAAAGCTGCAGAGGATGTGAGCA, the ETS1 binding intensity came to 433.

Turning to CCCTTGCCAGAGGAAGCCACTGCCACCGAAGAAGCA, the ETS1 binding intensity was determined as 372.

TGACTTCCTCCTCTTCACTAACAGAAACGTCAATTT displayed an ETS1 binding intensity of 9420.

GGCTTGCCAAGAGGAAATTTGAAGCTACAATAACAT came in with an ETS1 binding intensity of 397.

Sequence ACCCCTGCTGGTCCTGTGCCTGGCGGGCTTCCGGCA showed an ETS1 binding intensity of 633.

TAAGGAAGCTGAGGGGAGGGTGTTATGAGCACATCA showed an ETS1 binding intensity of 430.

GGGGCCTCACCTCAGGTTCCACTTCCTTTCTGGGTA came in with an ETS1 binding intensity of 1190.

ATAAGGAAGCCGGCGCACTGATTTGGGGTTGTTGCC returned an ETS1 binding intensity of 394.

The sequence TGCCTGTTGTCTTTTGAGAGGTGGGGAAGTGGGCGA displayed an ETS1 binding intensity of 519.

In the case of AGGCTGTGATTATCTGCAAACAGCCCCCTTCCTTCA, the ETS1 binding intensity is 303.

As to CGGCTCCTGAGGGCCCTCACATCCTGAAACACCGCT, the ETS1 binding intensity amounted to 850.

In the case of GAGGACGCGGAAGTCCTTCTCGCGGGGCGGAGCTAG, the ETS1 binding intensity worked out at 1540.

Consider TTGGTTGTGTCGTCGCGTCTCGGAAACCGGTAGCGC, for which the ETS1 binding intensity came to 400.

For the sequence ACCGGAGTGTGGAGGTAAACCTTTTCCGGCCTTCCA, the ETS1 binding intensity was 1810.

Turning to AACACAGGTTCTGGGAGCAAGAAAGGAAGTGGCTTG, the ETS1 binding intensity turned out to be 536.

Take CCGAGGTTCCTGCTGCAGAAAGAAAGCGGAAATTTC: the ETS1 binding intensity came to 1630.

As for TCCTGTTTTCCACCCAGCCTCTTCCTCCCGTGCCCA, the ETS1 binding intensity was 507.

On to GTAACCCAGGCCCCAAGTGGGGTGAAGGAAGCTGTA, for which the ETS1 binding intensity was determined as 391.

For the sequence CCACCCAGAAAACTACATTTAACTTCCTCCTCTACT, the ETS1 binding intensity came out at 804.

Sequence CTTCGAATTGCCGCGAGAGAGTTCCGCGTAGGGGTC registered an ETS1 binding intensity of 371.

Regarding TGGCTGGGGCTGCCGGGGCAGCGCTTCCTCTAGCAA, the ETS1 binding intensity is 470.

In turn, CCCAGCCGTATGTGCAGAGTGGGGAGGAAGAGGAGG had an ETS1 binding intensity of 410.

CTCCAGGGACTACAGCGGGAGAGGAAATAGCCACCA gave an ETS1 binding intensity of 515.

CCTCTCCATCTTCCGCACCACTGAGGCCGCTGTCTC registered an ETS1 binding intensity of 1320.

Consider AAGCCCTAGAGGAAATTAGTACGTAAGCACCTTCTG, for which the ETS1 binding intensity was determined as 670.

Turning to AGCGGCTTCCTGCTGGGCTTTTGCACTCCCCAGAAC, the ETS1 binding intensity worked out at 11800.

CCTGGGACACCTCGAAAGTCGGGAAATGGTGCGTGT gave an ETS1 binding intensity of 346.

CCACCAAGAGTGGATTCTGACCTCTTCCTGCCACTG yielded an ETS1 binding intensity of 651.

Sequence GGAATCCGCTGCCGCCGCCCTCGGGTTCCGCCGCGG returned an ETS1 binding intensity of 591.

For TTGAAGCGGAGGTTCGATGCGGAAGTGGCGGGTGCA, the ETS1 binding intensity was found to be 1080.

Consider CTTTTCGCGTTGTAGCTGGGACTTCCGCTCCGCCAT, for which the ETS1 binding intensity turned out to be 3690.

The sequence CTAAACCGGAAGCCGCCCCTCTGGCCGCTCTAAAAC came in with an ETS1 binding intensity of 21900.

AACTTCCGAGGGAACTAACTGGTTTTAATCACATTG registered an ETS1 binding intensity of 4690.

On to TCTCCACCCAAGCACACTATTTCCTTTCTTGCTGCC, for which the ETS1 binding intensity came out at 937.

Consider ACGTCGTCGCCGAAGGGCCCCTTCCGCCTCCGTTCC, for which the ETS1 binding intensity came out at 674.

TCCTCCCCCAACGGCACCCTCAGCTTCCTGTTTCAG returned an ETS1 binding intensity of 1720.

TCAGAGAGAGCTCTGGTTGCCGGAAGTTGAGCGGCG returned an ETS1 binding intensity of 3400.

AGGCGGAACTACTGTGTCAGGAGTCGTGCTTTTCAA registered an ETS1 binding intensity of 375.

The sequence GGTGCCGAAGCTCCAGCCTCTCGGCAAGGAAGCGCT returned an ETS1 binding intensity of 334.

In turn, AGATCTGGAGGCGGTCGCGGATGGGCTGGCGGCAGA yielded an ETS1 binding intensity of 301.

Turning to TTAGAGTCTCTGGGGCTCTTAGCTGGGAAATGATAC, the ETS1 binding intensity worked out at 352.

CAAAGCAACCTCCACCTGGTGGCGCCACTTCCCCCC yielded an ETS1 binding intensity of 439.

For GAGGCTGTTGTCACATGGGGGAGGAAACAATAGCCC, the ETS1 binding intensity was determined as 499.

Regarding AGACCCGGAAGAACTTGTCCCAGTGTTGACAACACC, the ETS1 binding intensity was 1200.

CCCTAGCTGCAGCCCAAGATCCTCCCACGGGAAGTG came in with an ETS1 binding intensity of 418.

In the case of CCTGTCTTGTAGTTAAGTCAAGGCAGGAAATGCTTT, the ETS1 binding intensity turned out to be 1860.

Turning to TCTCGGTTTCCTAAAAAACTAATCCGCCTGGGGCTG, the ETS1 binding intensity turned out to be 623.

For ATCTTACCCCGGAAATGACAACAGTGCCGTAAACTG, the ETS1 binding intensity stood at 9240.

In turn, ACAGCGCTGATCGCGGAGGTCCAACCGGAAGAATGT returned an ETS1 binding intensity of 711.

Turning to GAGAGGAGCGCTGTCACTGCTTCCTTCCACCCTCGC, the ETS1 binding intensity came to 437.

Consider GCAGCCCAGCTTCCTGCAGACCAAAACCCCAAGCAG, for which the ETS1 binding intensity amounted to 4680.

Regarding GAAAGAGGTTTGGGGTTAGTGCTTCCTGTCTCCACA, the ETS1 binding intensity came to 2890.

ACGACTGCAGGGGAAAGCAAGCCGGCCGGATGAGAA returned an ETS1 binding intensity of 419.

Regarding TCTAGTAAAAGAGGAAGTTCTTAACGACATTTCCAT, the ETS1 binding intensity turned out to be 1010.

The sequence TTGGTTCTGTGATTTCAGGTGTGAGTTCCGGTGTGC showed an ETS1 binding intensity of 695.

GTATCAGCCGCGCCCCAGTCGGAGGAAATAGACGCT gave an ETS1 binding intensity of 435.
